Experimental data: PubChem BioAssay AID504832 (National Center for Advancing Translational Sciences (NCATS), 2011)
The whole screen tested about 310,000 compounds, of which about 18,000 (5.8%) were called active. The shares of active, inactive and inconclusive entries below differ from those in the screen. The call rests on the fitted dose curve; in most records, active means well fitted inhibition curve with a large enough effect; inconclusive means small, poorly fitted or top-dose-only effect, or another doubt; inactive means no such curve, though single readings can be large or run the other way. No potency is given beside an inconclusive call; the fits are too rough.

Test: Primary qHTS for delayed death inhibitors of the malarial parasite plastid, 48 hour incubation
Conditions: P. falciparum luciferase growth in erythrocytes; series mostly up to 28.7 µM; activity change, negative = inhibition: at the top concentration
In short: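 In quantitative HTS format, infected erythrocytes bearing luciferase-reporter parasites were treated for a single generation at 37 C. Luminescence after adding detection reagent served as the growth measure.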
On the % scale 0 is the no-effect control and ±100 the full control effect; potency means the concentration at half of the fitted maximal effect; tags describe the fitted curve by direction and shape.

SMILES	Potency	activity change, negative = inhibition
CCOc1c2ccc(C(=O)NCc3ccc(OC(F)(F)F)cc3)cc2nn1C	inconclusive [inhibitor, full curve]	
Cn1c(O)c(C=NC2CCN(Cc3ccccc3)CC2)c(=O)n(C)c1=O	inconclusive [inhibitor, single point]	
CC(=O)Nc1ccc(S(=O)(=O)N2CCN(C(=O)C3COc4ccccc4O3)CC2)cc1 (configuration not stated)	inconclusive [inhibitor, single point]	
O=C(NCCN1CCOCC1)c1sc2ccccc2c1Cl		inactive: 34.5%
S=c1[nH]nc(-c2ccco2)n1/N=C/c1cccc(Cl)c1		inactive: 83.3%
COc1ccc2nc3oc(C(=O)N4CCN(c5cccc(Cl)c5)CC4)cc3cc2c1	inconclusive [inhibitor, single point]	
CC(C)N(C(=O)CSc1nc2ccccc2n1-c1ccccc1)C(C)C	inconclusive [inhibitor, partial curve, poor fit]	
Cc1ccc(NC(=O)CCn2c(=O)[nH]c3ccsc3c2=O)cc1F	inconclusive [inhibitor, single point]	
Cc1nnc(NC(=O)CSc2nnnn2Cc2ccccc2)s1		inactive: -9.97%
COc1ccc(CCN(C)CCC(=O)Nc2c(C)cc(C)cc2C)cc1OC	inconclusive [inhibitor, partial curve]	
CN(C)c1ccnc(Oc2ccc(C(C)(C)C)cc2)c1C#N	inconclusive [inhibitor, single point]	
CC1CCc2cc(F)ccc2N1C(=O)CSc1nnc(-c2cccs2)n1C (configuration not stated)	inconclusive [inhibitor, single point]	
CN1CCN(c2ccc(Cl)cc2NC(=O)c2ccc(S(=O)(=O)N3CCCCCC3)cc2)CC1	inconclusive [inhibitor, full curve]	
Cc1ccc(-c2nn(-c3ccccc3)cc2/C=N/NS(=O)(=O)c2ccccc2)cc1	inconclusive [inhibitor, partial curve]	
Cc1cccc(NC(=O)C2COc3ccccc3O2)n1 (configuration not stated)	inconclusive [inhibitor, single point]	
O=C(NCCS(=O)(=O)N1CCC2(CC1)OCCO2)c1ccccc1		inactive: 1.34%
CC[C@H]1C2C[C@H]3[C@@H]4N(C)c5ccccc5C45C[C@H](C2[C@H]5O)N3[C@@H]1O (some centres not stated)	inconclusive [inhibitor, single point]	
C=CCc1cccc(/C=N/NC(=O)c2ccc3nc[nH]c3c2)c1O	inconclusive [inhibitor, partial curve, poor fit]	
CCN1C(=O)[C@H]2[C@@H](c3ccc(C)cc3)N3C(=O)N(c4ccc(C(F)(F)F)cc4)C(=O)[C@@]3(CC(C)C)[C@H]2C1=O	inconclusive [inhibitor, partial curve]	
Cc1c(C(c2cc3c(cc2Br)OCO3)c2c(C)n(C)n(-c3ccccc3)c2=O)c(=O)n(-c2ccccc2)n1C	inconclusive [inhibitor, partial curve, poor fit]	
O=S(=O)(NCCCCCNS(=O)(=O)c1c(F)cccc1F)c1ccc2c(c1)OCCO2		inactive: 5.46%

SMILES	Potency	activity change, negative = inhibition
C=C[C@@H]1c2ccccc2N(S(=O)(=O)c2ccc(C)cc2)[C@H](c2ccc(OC(C)=O)cc2)C1(C#N)C#N	active: 3.7 µM	
CCCCNC(=O)[C@]1(C)CCC[C@@]2(C)C3CC[C@@]4(C)C[C@]3(CCC21)CC4=O (some centres not stated)		inactive: 19.7%
CC(CNC(=O)CCS(=O)(=O)c1ccc2c(c1)oc(=O)n2C)c1ccccc1 (configuration not stated)	inconclusive [inhibitor, single point]	
O=C(C[n+]1ccccc1)N/N=C/c1ccc(F)cc1	inconclusive [inhibitor, partial curve]	
COc1ccc(NC(=O)COc2cccc3c2CCN(Cc2cccnc2)C3=O)cc1	inconclusive [inhibitor, partial curve, poor fit]	
NC(N)=N/N=C/c1cccc([N+](=O)[O-])c1O	inconclusive [inhibitor, single point]	
Cc1cc(C)nc(SCC(=O)c2ccc(C)c(C)c2)n1		inactive: -0.193%
CC(Oc1cccc(Cl)c1)C(=O)Nc1ccc(N2CCOCC2)cc1N1CCOCC1 (configuration not stated)	active: 6.57 µM	
COc1ccccc1Nc1nnc(SCC(=O)NC2CC2)s1	inconclusive [inhibitor, single point]	
Cc1cc(C)n(CC(O)CN(c2ccccc2)S(=O)(=O)c2ccc3ccccc3c2)n1 (configuration not stated)	inconclusive [inhibitor, full curve, poor fit]	
CCN(CC)CCNCC(O)(c1ccc(Cl)cc1)c1ccc(Cl)cc1	inconclusive [inhibitor, single point]	
COc1cccc(NC(=O)c2ccc3c(SCC(=O)O)c4c(nc3c2)CCCC4)c1	inconclusive [inhibitor, single point]	
COc1ccccc1OCc1ccc(C(=O)N2N=C(C(F)F)CC2(O)C(F)F)o1 (configuration not stated)		inactive: 15.6%
COC(=O)c1sc(NC(=O)c2c(OC)cccc2OC)c(C#N)c1C		inactive: 42.8%
O=C(NNc1c2ccccc2nc2ccccc12)c1ccc(O)cc1	inconclusive [inhibitor, single point]	
Cc1ccccc1NS(=O)(=O)c1cccc2nsnc12		inactive: -5.33%
CC1CCCN(CCCNC(=O)c2ccc(N3CCCC3=O)cc2)C1 (configuration not stated)		inactive: 3.38%
CCOC(=O)c1nnn(-c2nc(OC)nc(N3CCCCC3)n2)c1-c1ccccc1	inconclusive [inhibitor, partial curve]	
CS(=O)(=O)N(Cc1ccc(Cl)cc1)c1ccc(C(=O)Nc2cccnc2)cc1	inconclusive [inhibitor, full curve, poor fit]	
C=CCN(C(=O)CNC(=O)c1ccco1)C(C(=O)NC1CCCCC1)c1ccc(F)cc1 (configuration not stated)	inconclusive [inhibitor, partial curve]	
COP(=O)(OC)C(O)C(Cl)(Cl)Cl (configuration not stated)	inconclusive [inhibitor, partial curve, poor fit]	
